Experimental data reported in the supplement of paper PMC4604168 (melanoma cell lines).
Some of the results follow. Many values rest on one well or one pass, so single values are uncertain.

Tested on: IPC-298
Assay: cell count relative to DMSO control; melanoma cells; higher = more viable cells
Conditions: library dose: standard library concentration; 72 h
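Further: cells treated in 1,536-well plates, then fixed and DAPI-stained, with nuclei counted from automated high-throughput microscope images.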

| SMILES | cell count [%] |
| --- | --- |
| C=CCNC1=C2C[C@@H](C)C[C@H](OC)[C@H](O)[C@@H](C)/C=C(\C)[C@H](OC(N)=O)[C@@H](OC)/C=C\C=C(/C)C(=O)NC(=CC1=O)C2=O [Tanespimycin] + NC(=O)Nc1cc(-c2cccc(F)c2)sc1C(=O)N[C@H]1CCCNC1 [AZD7762] (first compound 0.01 µM, partner dose 0.1 µM) | 76.6 |
| CS(=O)(=O)CCNCc1ccc(-c2ccc3ncnc(Nc4ccc(OCc5cccc(F)c5)c(Cl)c4)c3c2)o1 [lapatinib] + C=C(c1ccc(C(=O)O)cc1)c1cc2c(cc1C)C(C)(C)CCC2(C)C [Bexarotene] (first compound 4 µM, partner dose 10 µM) | 53.9 |
| CN1CCN(c2ccc3nc(-c4c(N)c5c(F)cccc5[nH]c4=O)[nH]c3c2)CC1 [Dovitinib] + Cn1cncc1[C@@](N)(c1ccc(Cl)cc1)c1ccc2c(c1)c(-c1cccc(Cl)c1)cc(=O)n2C [tipifarnib] (first compound 0.5 µM, partner dose 0.05 µM) | 73.9 |
| CS(=O)(=O)CCNCc1ccc(-c2ccc3ncnc(Nc4ccc(OCc5cccc(F)c5)c(Cl)c4)c3c2)o1 [lapatinib] + Cn1c(Nc2ccc(C(F)(F)F)cc2)nc2cc(Oc3ccnc(-c4ncc(C(F)(F)F)[nH]4)c3)ccc21 [CHIR265] (first compound 4 µM, partner dose 0.4 µM) | 44.5 |
| CS(=O)(=O)CCNCc1ccc(-c2ccc3ncnc(Nc4ccc(OCc5cccc(F)c5)c(Cl)c4)c3c2)o1 [lapatinib] + O=C(O)c1ccc2c(c1)nc(Nc1cccc(Cl)c1)c1ccncc12 [CX4945] (first compound 4 µM, partner dose 2 µM) | 57.5 |
| CNC(=O)c1cc(Oc2ccc(NC(=O)Nc3ccc(Cl)c(C(F)(F)F)c3)cc2)ccn1 [sorafenib] + COc1ccc2c(c1)CCC1C2CCC2(C)C(NCCCCCCN3C(=O)C=CC3=O)CCC12 [U73122] (first compound 2 µM, partner dose 2 µM) | 98 |
| CNC(=O)c1cc(Oc2ccc(NC(=O)Nc3ccc(Cl)c(C(F)(F)F)c3)cc2)ccn1 [sorafenib] + c1cc(-c2cnn3cc(-c4ccc(OCCN5CCCCC5)cc4)cnc23)ccn1 [Dorsomorphin] (first compound 2 µM, partner dose 2 µM) | 96.7 |
| C[C@@H](Oc1cc(-c2cnn(C3CCNCC3)c2)cnc1N)c1c(Cl)ccc(F)c1Cl [Crizotinib] + CC(C)CCN1c2nc(Nc3cc(F)c(O)c(F)c3)ncc2N(C)C(=O)C1C [BID1870] (first compound 1 µM, partner dose 1 µM) | 81.3 |
| C[C@@H](Oc1cc(-c2cnn(C3CCNCC3)c2)cnc1N)c1c(Cl)ccc(F)c1Cl [Crizotinib] + O=C(O)c1ccc2c(c1)nc(Nc1cccc(Cl)c1)c1ccncc12 [CX4945] (first compound 1 µM, partner dose 2 µM) | 68.8 |
| C[C@@H](Oc1cc(-c2cnn(C3CCNCC3)c2)cnc1N)c1c(Cl)ccc(F)c1Cl [Crizotinib] + CN(C)S(=O)(=O)c1ccc2c(c1)/C(=C/c1cc3c([nH]1)CCCC3)C(=O)N2 [SU6656] (first compound 1 µM, partner dose 2 µM) | 74.4 |
| CNC(=O)c1cc(Oc2ccc(NC(=O)Nc3ccc(Cl)c(C(F)(F)F)c3)cc2)ccn1 [sorafenib] + CC(=O)c1c(C)c2cnc(Nc3ccc(N4CCNCC4)cn3)nc2n(C2CCCC2)c1=O [palbociclib] (first compound 2 µM, partner dose 0.2 µM) | 72.4 |
| CNC(=O)c1cc(Oc2ccc(NC(=O)Nc3ccc(Cl)c(C(F)(F)F)c3)cc2)ccn1 [sorafenib] + C=CCn1c(=O)c2cnc(Nc3ccc(N4CCN(C)CC4)cc3)nc2n1-c1cccc(C(C)(C)O)n1 [MK1775] (first compound 2 µM, partner dose 0.1 µM) | 103 |
| CN1CCN(c2ccc3nc(-c4c(N)c5c(F)cccc5[nH]c4=O)[nH]c3c2)CC1 [Dovitinib] + CN(NC(=O)CC(=O)NN(C)C(=S)c1ccccc1)C(=S)c1ccccc1 [STA4783] (first compound 0.5 µM, partner dose 0.03 µM) | 72.8 |
| C[C@@H](Oc1cc(-c2cnn(C3CCNCC3)c2)cnc1N)c1c(Cl)ccc(F)c1Cl [Crizotinib] + Clc1ccc(Nc2nnc(Cc3ccncc3)c3ccccc23)cc1 [vatalanib] (first compound 1 µM, partner dose 10 µM) | 78.3 |
| C=CCNC1=C2C[C@@H](C)C[C@H](OC)[C@H](O)[C@@H](C)/C=C(\C)[C@H](OC(N)=O)[C@@H](OC)/C=C\C=C(/C)C(=O)NC(=CC1=O)C2=O [Tanespimycin] + CN(NC(=O)CC(=O)NN(C)C(=S)c1ccccc1)C(=S)c1ccccc1 [STA4783] (first compound 0.01 µM, partner dose 0.03 µM) | 68.4 |
| CS(=O)(=O)CCNCc1ccc(-c2ccc3ncnc(Nc4ccc(OCc5cccc(F)c5)c(Cl)c4)c3c2)o1 [lapatinib] + O=C(O)C(=O)Nc1sc2c(c1C(=O)O)CCNC2 [TCS401] (first compound 4 µM, partner dose 8.33333 µM) | 94 |
| CN1CCN(c2ccc3nc(-c4c(N)c5c(F)cccc5[nH]c4=O)[nH]c3c2)CC1 [Dovitinib] + CC1(C)NC(=O)N(c2ccc([N+](=O)[O-])c(C(F)(F)F)c2)C1=O [nilutamide] (first compound 0.5 µM, partner dose 5 µM) | 80.1 |
| CS(=O)(=O)CCNCc1ccc(-c2ccc3ncnc(Nc4ccc(OCc5cccc(F)c5)c(Cl)c4)c3c2)o1 [lapatinib] + C[C@@H]1CCN(C(=O)CC#N)C[C@@H]1N(C)c1ncnc2[nH]ccc12 [CP690550] (first compound 4 µM, partner dose 5 µM) | 88.9 |
| C[C@@H](Oc1cc(-c2cnn(C3CCNCC3)c2)cnc1N)c1c(Cl)ccc(F)c1Cl [Crizotinib] + C[C@@H]1CCN(C(=O)CC#N)C[C@@H]1N(C)c1ncnc2[nH]ccc12 [CP690550] (first compound 1 µM, partner dose 5 µM) | 128 |
| C[C@@H](Oc1cc(-c2cnn(C3CCNCC3)c2)cnc1N)c1c(Cl)ccc(F)c1Cl [Crizotinib] + NC(=O)Nc1cc(-c2cccc(F)c2)sc1C(=O)N[C@H]1CCCNC1 [AZD7762] (first compound 1 µM, partner dose 0.1 µM) | 98.1 |
| CN1CCN(c2ccc3nc(-c4c(N)c5c(F)cccc5[nH]c4=O)[nH]c3c2)CC1 [Dovitinib] + N#Cc1c(O)c2c(-c3ccc(-c4ccccc4O)cc3)csc2[nH]c1=O [A769662] (first compound 0.5 µM, partner dose 10 µM) | 90.5 |
| CN1CCN(c2ccc3nc(-c4c(N)c5c(F)cccc5[nH]c4=O)[nH]c3c2)CC1 [Dovitinib] + C#Cc1cccc(Nc2ncnc3cc(OCCOC)c(OCCOC)cc23)c1 [erlotinib] (first compound 0.5 µM, partner dose 4 µM) | 42.5 |
| CN1CCN(c2ccc3nc(-c4c(N)c5c(F)cccc5[nH]c4=O)[nH]c3c2)CC1 [Dovitinib] + O=C(O)C(=O)Nc1sc2c(c1C(=O)O)CCNC2 [TCS401] (first compound 0.5 µM, partner dose 8.33333 µM) | 85.3 |
| C[C@@H](Oc1cc(-c2cnn(C3CCNCC3)c2)cnc1N)c1c(Cl)ccc(F)c1Cl [Crizotinib] + Cn1nnc2c(C(N)=O)ncn2c1=O [temozolomide] (first compound 1 µM, partner dose 10 µM) | 96.1 |
| C=CCNC1=C2C[C@@H](C)C[C@H](OC)[C@H](O)[C@@H](C)/C=C(\C)[C@H](OC(N)=O)[C@@H](OC)/C=C\C=C(/C)C(=O)NC(=CC1=O)C2=O [Tanespimycin] + OCCn1cc(-c2cnc3nnn(Cc4ccc5ncccc5c4)c3n2)cn1 [PF04217903] (first compound 0.01 µM, partner dose 5 µM) | 94.5 |
| C[C@@H](Oc1cc(-c2cnn(C3CCNCC3)c2)cnc1N)c1c(Cl)ccc(F)c1Cl [Crizotinib] + C=CCn1c(=O)c2cnc(Nc3ccc(N4CCN(C)CC4)cc3)nc2n1-c1cccc(C(C)(C)O)n1 [MK1775] (first compound 1 µM, partner dose 0.1 µM) | 101 |
| C=CCNC1=C2C[C@@H](C)C[C@H](OC)[C@H](O)[C@@H](C)/C=C(\C)[C@H](OC(N)=O)[C@@H](OC)/C=C\C=C(/C)C(=O)NC(=CC1=O)C2=O [Tanespimycin] + OCc1c[nH]c2ccccc12 [Indole-3-carbinol] (first compound 0.01 µM, partner dose 4 µM) | 92.1 |
| CS(=O)(=O)CCNCc1ccc(-c2ccc3ncnc(Nc4ccc(OCc5cccc(F)c5)c(Cl)c4)c3c2)o1 [lapatinib] + NC(=O)Nc1cc(-c2cccc(F)c2)sc1C(=O)N[C@H]1CCCNC1 [AZD7762] (first compound 4 µM, partner dose 0.1 µM) | 91.5 |
| CN1CCN(c2ccc3nc(-c4c(N)c5c(F)cccc5[nH]c4=O)[nH]c3c2)CC1 [Dovitinib] + Nc1ncn([C@H]2C[C@H](O)[C@@H](CO)O2)c(=O)n1 [decitabine] (first compound 0.5 µM, partner dose 0.5 µM) | 47.9 |
